Experimental data: a collection of fitness landscapes (doi:10.1016/j.celrep.2020.107928)
Over roughly 81,000 sequences, “one-hybrid fitness for binding NBS DNA” has its median near -0.1; the highest 2% begin near 0.36. The list shows a part of the results.

B1: Caulobacter ParB omega fusion; a variant is named by its letters at X, in order, B8GW30 (parent)
chain: MESVVVGEPGMSEGRRGLGRGLSALLGEVDAAPAQAPGEQLGGSREAPIEILQRNPDQPRRTFREEDLEDLSNSIREKGVLQPILVRPSPDTAGEYQIVAGERAWRAAQRAGLKTVPIMVRELDDLAVLEIGIIENVQRADLNVLEEALSYKVLMEKFERTQENIAQTIGKSXSHVANXMRLLXLPDEVQSYLVSGELTAXHARAIAAAADPVALAKQIIEGGLSVRETEALARKAPNLSAGKSKGGRPPRVKDTDTQALESDLSSVLGLDVSIDHRGSTGTLTITYATLEQLDDLCNRLTRGI

Variants of: B1
Assay: one-hybrid fitness for binding NBS DNA (the Noc-binding site; scaled: cognate 1, non-cognate 0); higher = stronger binding
Settings: with NBS DNA site
Outline: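 Caulobacter ParB libraries with four specificity codons randomised were screened by bacterial one-hybrid selection in the E. coli USO strain, using a HIS3 reporter whose site lies 19 bp from the promoter. Selection ran for 48 hours at 37°C on M9 lacking histidine, with 0.1 mM IPTG and 5 mM 3-AT. Plasmids were Illumina-sequenced before and after selection, three replicate libraries were pooled, and variants with under 10 reads were dropped. Fitness is the log change in each variant's read ratio to wild type, rescaled against the cognate and non-cognate sites.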

Variant	one-hybrid fitness for binding NBS DNA
CGAW	≤ 0.2
WDDL	≤ 0.2
DWSD	≤ 0.2
RFMG	≤ 0.2
RLRH	0.322
AWPK	≤ 0.2
QLMI	≤ 0.2
LFLR	≤ 0.2
YGMR	≤ 0.2
HYGP	≤ 0.2
DRSH	≤ 0.2
RIKN	≤ 0.2
ESTD	≤ 0.2
PLRM	≤ 0.2
DRLL	≤ 0.2
VNLC	≤ 0.2
RLDG	≤ 0.2
QRLS	0.603
PRCA	≤ 0.2
SYET	≤ 0.2
VTPY	≤ 0.2
CWHV	≤ 0.2
QHVP	≤ 0.2
KSQQ	≤ 0.2

Variant	one-hybrid fitness for binding NBS DNA
NPEC	≤ 0.2
QVMC	≤ 0.2
GSKG	≤ 0.2
SYTW	≤ 0.2
PEGS	≤ 0.2
GSCV	≤ 0.2
QKQE	≤ 0.2
SHMR	≤ 0.2
RRLW	≤ 0.2
QGIV	≤ 0.2
SRAQ	≤ 0.2
RTFA	≤ 0.2
RVES	≤ 0.2
ESKS	≤ 0.2
QKRK	0.429
ARTM	≤ 0.2
SRSV	≤ 0.2
SSSV	≤ 0.2
NCSG	≤ 0.2
KWMV	≤ 0.2
KLLI	≤ 0.2
PMTI	≤ 0.2
VSCI	≤ 0.2
WTAS	≤ 0.2

Variant	one-hybrid fitness for binding NBS DNA
SKPS	≤ 0.2
YNGW	≤ 0.2
VTKA	≤ 0.2
PPYD	≤ 0.2
YHSN	≤ 0.2
SIHD	≤ 0.2
PYDG	≤ 0.2
FSHT	≤ 0.2
DRTI	≤ 0.2
HAIV	≤ 0.2
GLSS	≤ 0.2
VKNG	≤ 0.2
GFWS	≤ 0.2
PEEL	≤ 0.2
VEAL	≤ 0.2
QKQL	≤ 0.2
PTNC	≤ 0.2
MTPC	≤ 0.2
GKSP	≤ 0.2
VAIH	≤ 0.2
NQSW	≤ 0.2
TSDV	≤ 0.2
GRFV	≤ 0.2
QPLY	≤ 0.2

Variant	one-hybrid fitness for binding NBS DNA
SLQR	≤ 0.2
GELS	≤ 0.2
HIVF	≤ 0.2
HCVS	≤ 0.2
SVQC	≤ 0.2
QTSQ	0.306
HVLC	≤ 0.2
QNTF	≤ 0.2
ENAK	≤ 0.2
LLHG	≤ 0.2
DFDT	≤ 0.2
NMDD	≤ 0.2
LWRH	≤ 0.2
FHHS	≤ 0.2
IVRV	≤ 0.2
VCIL	≤ 0.2
NNPF	≤ 0.2
RECD	≤ 0.2
KEPG	≤ 0.2
RGCE	≤ 0.2
YYMR	≤ 0.2
MDRG	≤ 0.2
ICLT	≤ 0.2
FRMR	≤ 0.2

Variant	one-hybrid fitness for binding NBS DNA
RGYW	≤ 0.2
KRAK	≤ 0.2
NQIG	≤ 0.2
NYVT	≤ 0.2
SDTC	≤ 0.2
CNNM	≤ 0.2
MNMS	≤ 0.2
VNLA	≤ 0.2
QYVN	≤ 0.2
ILAW	≤ 0.2
HQIT	≤ 0.2
ECSL	≤ 0.2
NSWT	≤ 0.2
NLVT	≤ 0.2
NAAQ	≤ 0.2
CSHR	≤ 0.2
KLVQ	≤ 0.2
HNWD	≤ 0.2
IADY	≤ 0.2
TKRI	≤ 0.2
LNAA	≤ 0.2
KATR	≤ 0.2
QRIG	≤ 0.2
ETEY	≤ 0.2

Variant	one-hybrid fitness for binding NBS DNA
RWQS	≤ 0.2
TVKV	≤ 0.2
PFIY	≤ 0.2
NCAR	≤ 0.2
EIDT	≤ 0.2
HGFS	≤ 0.2
CSSY	≤ 0.2
PNNC	≤ 0.2
ITSE	≤ 0.2
QIQC	≤ 0.2
LILM	≤ 0.2
QILS	≤ 0.2
FCHR	≤ 0.2
VLCG	≤ 0.2
WCNY	≤ 0.2
RMVP	≤ 0.2
RRMS	0.628
SVFF	≤ 0.2
TLSR	≤ 0.2
TTAI	≤ 0.2
TGYV	≤ 0.2
IEER	≤ 0.2
QYGI	≤ 0.2
YVYM	≤ 0.2

Variant	one-hybrid fitness for binding NBS DNA
HYTT	≤ 0.2
WLIK	≤ 0.2
LVQS	≤ 0.2
RKHI	≤ 0.2
EHEF	≤ 0.2
LDAS	≤ 0.2
LPRV	≤ 0.2
TRGN	≤ 0.2
VITK	≤ 0.2
RYQQ	≤ 0.2
RYVE	≤ 0.2
HVKF	≤ 0.2
TIPL	≤ 0.2
QRGF	0.33
INVC	≤ 0.2
QILY	≤ 0.2
RHQY	≤ 0.2
CKSE	≤ 0.2
SVIY	≤ 0.2
TWTI	≤ 0.2
PPFM	≤ 0.2
NITK	≤ 0.2
SEPM	≤ 0.2
TKNR	≤ 0.2

Variant	one-hybrid fitness for binding NBS DNA
FKAR	≤ 0.2
RPYP	≤ 0.2
HQTE	≤ 0.2
STKA	≤ 0.2
TESE	≤ 0.2
PVEF	≤ 0.2
VWRR	≤ 0.2
RDAQ	≤ 0.2
NTSL	≤ 0.2
EDMY	≤ 0.2
PGRP	≤ 0.2
ELVR	≤ 0.2
IIRY	≤ 0.2
CVTC	≤ 0.2
LRSL	≤ 0.2
RHIM	≤ 0.2
HEGW	≤ 0.2
QSTY	≤ 0.2
YTGR	≤ 0.2
QIPS	≤ 0.2
QHLQ	≤ 0.2
YCAQ	≤ 0.2
VNKV	≤ 0.2
VLMG	≤ 0.2

Variant	one-hybrid fitness for binding NBS DNA
TLVA	≤ 0.2
CSDR	≤ 0.2
RERT	≤ 0.2
FWDI	≤ 0.2
ANNC	≤ 0.2
TMSG	≤ 0.2
AQNP	≤ 0.2
EDRY	≤ 0.2
IEKF	≤ 0.2
KHQT	≤ 0.2
LLNV	≤ 0.2
DPNH	≤ 0.2
AKPE	≤ 0.2
SDYN	≤ 0.2
PIEL	≤ 0.2
KTCW	≤ 0.2
CQLP	≤ 0.2
AQPM	≤ 0.2
EWSR	≤ 0.2
ELRC	≤ 0.2
RTVD	≤ 0.2
YCVL	≤ 0.2
KHNR	≤ 0.2
ARDG	≤ 0.2

Variant	one-hybrid fitness for binding NBS DNA
IMYC	≤ 0.2
PSSI	≤ 0.2
EAES	≤ 0.2
LLQS	≤ 0.2
QKYR	0.505
QERC	≤ 0.2
KWES	≤ 0.2
GLFG	≤ 0.2
RPGQ	≤ 0.2
TLNS	≤ 0.2
VDKA	≤ 0.2
YFFG	≤ 0.2
YLKR	≤ 0.2
QYSR	0.499
TIYC	≤ 0.2
TPNP	≤ 0.2
RISE	≤ 0.2
YSLC	≤ 0.2
EALW	≤ 0.2
WYVS	≤ 0.2
IARL	≤ 0.2
TAYM	≤ 0.2
HSPV	≤ 0.2
QKNF	≤ 0.2

Variant	one-hybrid fitness for binding NBS DNA
KHTI	≤ 0.2
TGSK	≤ 0.2
RSED	≤ 0.2
HTAV	≤ 0.2
RYQR	0.44
ETKT	≤ 0.2
EARR	0.284
RMNP	≤ 0.2
AVHK	≤ 0.2
QAID	≤ 0.2
RAHE	≤ 0.2
GYRH	≤ 0.2
QCLH	≤ 0.2
RVLP	≤ 0.2
LQQT	≤ 0.2
KMPW	≤ 0.2
LSSV	≤ 0.2
SWMR	≤ 0.2
KVTV	≤ 0.2
VRAF	≤ 0.2
MMPN	≤ 0.2
LQCR	≤ 0.2
RPGA	≤ 0.2
ASMY	≤ 0.2

Variant	one-hybrid fitness for binding NBS DNA
FALL	≤ 0.2
LLVN	≤ 0.2
LEHH	≤ 0.2
GRAT	≤ 0.2
IRIG	≤ 0.2
RTIC	≤ 0.2
FNSL	≤ 0.2
VSTR	≤ 0.2
WMFT	≤ 0.2
CPNE	≤ 0.2
DTHT	≤ 0.2
EPTQ	≤ 0.2
RMAM	≤ 0.2
HINR	≤ 0.2
NFDD	≤ 0.2
AFVW	≤ 0.2
VWGV	≤ 0.2
NHPQ	≤ 0.2
QATA	≤ 0.2
QGNL	≤ 0.2
AKDS	≤ 0.2
LFKG	≤ 0.2
WDTK	≤ 0.2
QGNQ	≤ 0.2

Variant	one-hybrid fitness for binding NBS DNA
RTTV	≤ 0.2
TQLT	≤ 0.2
QIIR	≤ 0.2
QPDR	≤ 0.2
KTGC	≤ 0.2
MVVQ	≤ 0.2
MCLT	≤ 0.2
WRYF	≤ 0.2
AQLA	≤ 0.2
PHSK	≤ 0.2
QPTR	≤ 0.2
ATII	≤ 0.2
REAE	≤ 0.2
RQLA	≤ 0.2
HVYS	≤ 0.2
PMVG	≤ 0.2
FKTS	≤ 0.2
VCTT	≤ 0.2
